# Test results taken from PubChem BioAssay AID624296 (National Center for Advancing Translational Sciences (NCATS), 2012).
# Out of some 350,000 compounds screened, about 9,900 (2.8%) were called active. The inconclusive results got no clear call from the source; some entries with a clear call stand among them for comparison. Calls come from the whole dose curve; as a rule, active = well fitted activation curve with a large enough effect; inconclusive = small, poorly fitted or top-dose-only effect; inactive = no such curve, though single readings can be large or run the other way. No potency is given beside an inconclusive call; the fits are too rough.
# Test: A quantitative high throughput screen for small molecules that induce DNA re-replication in MCF 10a normal breast cells. For activity, positive = re-replication: % of control where 0% means no effect. Note: nearly all actives have a fitted effect of over 50% in size.
# Settings: MCF 10A DNA re-replication, Hoechst nuclear intensity, 48 h; activity, positive = re-replication: at 46.1 µM (top of the series)
# Potency is the fitted concentration of half-maximal effect; tags give direction and shape of the fitted curve.
Structure (SMILES),Potency,"activity, positive = re-replication"
Clc1ccc(-n2nnnc2SCc2cn3ccccc3n2)cc1,"inconclusive [activator, full curve, poor fit]",
COc1ccc(/C=C/c2ccc3cccc(O)c3n2)c(OC)c1OC,active: 1.64 µM,
O=C(NCc1ccccc1)C1=C[C@H](c2ccc(Br)cc2)C[C@H](OCc2ccc(CO)cc2)O1,"inconclusive [activator, partial curve, poor fit]",
CCn1cc(C(=O)N2CCN(c3ccccn3)CC2)c2cc(OC)c(OC)cc2c1=O,,inactive: -1.96%
CCC(c1nnnn1CCc1ccccc1)N(Cc1ccco1)Cc1cc2cccc(C)c2[nH]c1=O (stereo not given),"inconclusive [activator, single point]",
Brc1cccc(CSc2nnc(-c3ccncc3)o2)c1,,inactive: 13.6%
NC(=O)Cc1ccc(Nc2nnc(-c3ccccc3)c3ccccc23)cc1,,inactive: -6.57%
O=C(Nc1ccc2c(c1)OCO2)c1cc(C2CC2)on1,"inconclusive [activator, partial curve, poor fit]",
COc1ccc(N(C(=O)c2snc(C(N)=O)c2N)C(C(=O)NC2CCCCC2)c2ccc(C)o2)c(OC)c1 (stereo not given),"inconclusive [activator, partial curve, poor fit]",
CC(=O)N1CCN(c2ccc([N+](=O)[O-])c(NCc3cccnc3)c2)CC1,,inactive: -3.21%
COc1ccc(C)cc1C(=O)CCC(=O)NCCc1ccc(S(N)(=O)=O)cc1,,inactive: 0.578%
O=C(N/N=C/C(Br)=C/c1ccccc1)c1ccccc1[N+](=O)[O-],"inconclusive [activator, single point]",
Cc1cc(C(=O)COC(=O)c2ccc3c(c2)NC(=O)CS3)c(C)n1CC1CCCO1 (stereo not given),"inconclusive [activator, partial curve, poor fit]",
CCNc1nc(NC(C)C)nc(N(C#N)CC(=O)OC)n1,"inconclusive [activator, single point]",
COc1ccc(CSc2nc(C)cc(C)c2S(C)(=O)=O)cc1,"inconclusive [activator, single point]",
Cn1c(/C(C#N)=C(\O)c2ccc([N+](=O)[O-])s2)nc2ccccc21,,inactive: 7.36%
NC(=O)N=Nc1c2[nH]c3ccccc3nc-2c2ccccc12,"inconclusive [activator, partial curve, poor fit]",
CCOc1ccccc1NC(=O)c1cccc(NC(=O)c2ccco2)c1,active: 6.51 µM,
O=C(CSc1n[nH]c(=O)[nH]c1=O)Nc1cccc(S(=O)(=O)N2CCOCC2)c1,"inconclusive [activator, partial curve, poor fit]",
C[n+]1ccc(C(=O)N/N=C/c2ccco2)cc1,,inactive: -16.1%
CN1CCN(c2ccccc2NC(=O)COc2ccc(C3CCCCC3)cc2)CC1,"inconclusive [activator, single point]",
CN(C(=S)NC(=O)C1CC1)c1ccc(O)cc1,,inactive: 5.29%
Cc1cc(N2CCCCC2)nc(NCc2ccccc2)n1,"inconclusive [activator, single point]",
Cc1c(O)c(CN2CCCCC2)cc2c1oc(=O)c1ccccc12,,inactive: 6.95%

Structure (SMILES),Potency,"activity, positive = re-replication"
COc1cc(CC(CC(=O)c2ccc3c(c2)OCO3)C(=O)O)cc(OC)c1OC (stereo not given),,inactive: -21.2%
Oc1ccccc1Nc1nc(NCC2CCCO2)c2ccccc2n1 (stereo not given),"inconclusive [activator, partial curve, poor fit]",
O=C(NCCS(=O)(=O)N1CCN(c2cccc(Cl)c2)CC1)C1CCCC1,,inactive: 0.397%
Cc1ccc2c(c1)c1c3n2CCN[C@H]3CCC1,"inconclusive [activator, partial curve, poor fit]",
O=C(NCc1ccccc1)c1cccc2c1C(=O)c1ccc(/C=C/c3ccccc3)cc1S2(=O)=O,active: 18.4 µM,
COc1ccc(NC(=O)c2[nH]c(C)c(C(C)=O)c2C)cc1S(=O)(=O)N1CCOCC1,"inconclusive [activator, partial curve, poor fit]",
Cc1cc(=O)[nH]c(-c2ccc(Cl)cc2)n1,"inconclusive [activator, full curve, poor fit]",
C(=N\Nc1nc(N2CCCCC2)nc(N2CCCCC2)n1)/c1c[nH]c2ccccc12,,inactive: 12.1%
Cc1noc(C)c1S(=O)(=O)Nc1ccc2c(c1)C(=O)N([C@H](C)CO)C[C@H](C)[C@@H](CN(C)C(=O)Nc1ccc3c(c1)OCO3)O2,,inactive: -0.693%
CCOc1ccc(OCC)c(NC(=O)CCS(=O)(=O)c2ccc(C)cc2)c1,,inactive: -9.05%
Cc1ccc(C(NC(=O)NCCCN2CCOCC2)=C(Cl)Cl)cc1F,"inconclusive [activator, single point]",
O=C(Cc1cccs1)NNC(=S)NC(=O)c1ccc(F)c(F)c1,,inactive: 0.588%
C/C(=N\NC(=S)NCCc1ccccc1)c1ccc(Cl)cc1,,inactive: 11.7%
CCn1c(C)c(C)c2cc(C(=O)N3CCCC3)ccc21,"inconclusive [activator, full curve, poor fit]",
COc1ccc(/C=c2/sc3n(c2=O)C(c2ccccc2OC)C2=C(N=3)c3ccccc3CC2)cc1O (stereo not given),active: 18.4 µM,
CCN(CC)S(=O)(=O)c1cccc(NC(=O)c2ccc(SC)cc2OC)c1,,inactive: 11.5%
Nc1ccc2ncccc2c1N,"inconclusive [activator, partial curve, poor fit]",
CCC(C)NC(=S)Nc1ccccc1OC (stereo not given),"inconclusive [activator, single point]",
COc1ccc(NC(=O)C(=O)N2N=C(C(C)C)CC2(O)C(F)(F)F)cc1 (stereo not given),"inconclusive [activator, single point]",
c1nc2n(n1)C1=C(CCCC1)C1(CCCCC1)N2,,inactive: -4.1%
CCOC(=O)c1c(NS(=O)(=O)c2ccc(Br)cc2)sc2c1CCC2,"inconclusive [activator, single point]",
COc1ccccc1C(CNc1ccc(S(=O)(=O)N2CCCC2)cc1[N+](=O)[O-])N(C)C (stereo not given),"inconclusive [activator, single point]",
Cc1nn(-c2ccccc2)c(Cl)c1/C=N/NC(=O)c1[nH]ncc1Br,,inactive: -5.08%
O=C(CN1CC[n+]2c(-c3cccs3)csc21)c1ccc(-c2ccccc2)cc1,"inconclusive [activator, single point]",

Structure (SMILES),Potency,"activity, positive = re-replication"
COc1cc(CNCc2ccc(SC)cc2)cc(OC)c1,"inconclusive [activator, partial curve, poor fit]",
O=C(NCCN1CCOCC1)c1cccc(S(=O)(=O)N(Cc2ccccc2)c2ccccc2)c1,"inconclusive [activator, partial curve, poor fit]",
N#CC1=C(N)NC(=S)C(C(N)=O)C1c1ccccc1F (stereo not given),"inconclusive [activator, single point]",
C=CCOC(=O)C1=C(C)NC(SCC(=O)Nc2nccs2)=C(C#N)C1c1cccs1 (stereo not given),"inconclusive [activator, full curve, poor fit]",
Cn1cc(CN2CCC(C(=O)Nc3cccc(-c4cccc(F)c4)c3)CC2)cn1,"inconclusive [activator, partial curve]",
Fc1ccc(NCc2nnc3n2CCCCC3)cc1,"inconclusive [activator, single point]",
Cc1ccc(NC(=S)NNC(=O)Cn2nc(C(F)F)cc2C(F)F)cc1,,inactive: -3.44%
OC1(CNCc2cn[nH]c2-c2cc3ccccc3o2)CCCCC1,"inconclusive [activator, partial curve, poor fit]",
CNC(=S)N(CCO)Cc1cc2cc3c(cc2[nH]c1=O)OCCO3,,inactive: 0.587%
COc1cc2c(cc1OC)C1(Nc3c-2c(-c2ccccc2)nn3-c2ccccc2)C(=O)Nc2ccccc21 (stereo not given),"inconclusive [activator, single point]",
C=CCn1c(C)cc(C2=NNC(=NC(C)(C)C)SC2)c1C,"inconclusive [activator, single point]",
CCSc1nc(C)nc2c1oc1ccccc12,"inconclusive [activator, partial curve, poor fit]",
Cn1c(N)c(C(=O)COC(=O)c2cc(S(=O)(=O)N3CCOCC3)ccc2F)c(=O)n(C)c1=O,"inconclusive [activator, single point]",
CCOC(=O)/C=C/C(=O)OCC(=O)NCc1ccccc1,"inconclusive [activator, single point]",
COc1ccc(C(C)=O)cc1COC(=O)CCNS(=O)(=O)c1ccc(C)cc1,"inconclusive [activator, single point]",
CC(NO)/C(=N\O)c1cccs1 (stereo not given),active: 3.66 µM,
CC(C)CNC(=S)N1CCN(c2nc(-c3ccc(Cl)cc3)cs2)CC1,,inactive: 0.173%
CCn1c(=N)n(CC(=O)C23CC4CC(CC(C4)C2)C3)c2ccccc21,"inconclusive [activator, partial curve, poor fit]",
Cc1cc(Cn2nc(C(=O)NCc3cccs3)cc2-c2ccccc2)on1,,inactive: -2.28%
Cc1onc(-c2c(Cl)cccc2Cl)c1NC(=O)N(C)N,"inconclusive [activator, single point]",
O=C(CS(=O)(=O)c1ccc(Cl)cc1)Nc1nnc(-c2cccs2)o1,,inactive: 11.1%
Cc1cc(C)c[n+](C2=C([O-])c3ccccc3C(=O)/C2=N\S(=O)(=O)c2cccs2)c1,"inconclusive [activator, single point]",
